# Laboratory results from the supplement of paper PMC8728848.
# This is one part of the list.
# B1: Gal 3 (Homo sapiens), P17931 (protein)
# chain: MADNFSLHDALSGSGNPNPQGWPGAWGNQPAGAGGYPGASYPGAYPGQAPPGAYPGQAPPGAYHGAPGAYPGAPAPGVYPGPPSGPGAYPSSGQPSAPGAYPATGPYGAPAGPLIVPYNLPLPGGVVPRMLITILGTVKPNANRIQLDFQRGNDVAFHFNPRFNENNRRVIVCNTKLDNNWGREERQSVFPFESGKPFKIQVLVEPDHFKVAVNDAHLLQYNHRVKKLNEISKLGISGDIDLTSASYTMI
# What was measured:
# Test in all cases: glycan array binding signal (z-score within array); higher = stronger binding
# Details in all cases: glycan notation: IUPAC condensed, linker removed; mutation: A146Q
# [1] = target: Gal(b1-4)GlcNAc(b1-3)Gal(b1-4)[Fuc(a1-3)]GlcNAc(b1-3)Gal(b1-4)[Fuc(a1-3)]GlcNAc
# Procedure, shortened: (§1)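 The binding signal is a Z-score computed within each array and averaged over linkers. Arrays of the same protein sequence at different concentrations or buffers were also averaged together. Data originate from 3228 arrays in the Consortium for Functional Glycomics database, kept only where the protein sequence was available.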
# [2] = target: Gal(b1-4)GlcNAc(b1-3)GalNAc
# Procedure, shortened: as §1
# [3] = target: Gal(b1-4)GlcNAc(b1-3)[Gal(b1-4)GlcNAc(b1-6)]Gal(b1-4)GlcNAc
# Procedure, shortened: as §1
# [4] = target: Gal(b1-4)GlcNAc(b1-3)[Gal(b1-4)GlcNAc(b1-6)]GalNAc
# Procedure, shortened: as §1
# [5] = target: Gal(b1-4)GlcNAc(b1-3)[GlcNAc(b1-6)]Gal(b1-4)GlcNAc
# Procedure, shortened: as §1
# [6] = target: Gal(b1-4)GlcNAc(b1-6)Gal(b1-4)GlcNAc
# Procedure, shortened: as §1
# [7] = target: Gal(b1-4)GlcNAc(b1-6)GalNAc
# Procedure, shortened: as §1
# [8] = target: Gal(b1-4)GlcNAc(b1-6)[Gal(b1-3)]GalNAc
# Procedure, shortened: as §1
# Gal3S(b1-3)GalNAc = target: Gal3S(b1-3)GalNAc
# Procedure, shortened: as §1
# Gal3S(b1-3)GlcNAc = target: Gal3S(b1-3)GlcNAc
# Procedure, shortened: as §1
# [9] = target: Gal3S(b1-3)[Fuc(a1-4)]GlcNAc
# Procedure, shortened: as §1
# Gal3S(b1-4)Glc = target: Gal3S(b1-4)Glc
# Procedure, shortened: as §1
# Gal3S(b1-4)Glc6S = target: Gal3S(b1-4)Glc6S
# Procedure, shortened: as §1
# Gal3S(b1-4)GlcNAc = target: Gal3S(b1-4)GlcNAc
# Procedure, shortened: as §1
# Gal3S(b1-4)GlcNAc6S = target: Gal3S(b1-4)GlcNAc6S
# Procedure, shortened: as §1
# [10] = target: Gal3S(b1-4)[Fuc(a1-3)]Glc
# Procedure, shortened: as §1
# [11] = target: Gal3S(b1-4)[Fuc(a1-3)]Glc6S
# Procedure, shortened: as §1
# Gal3S4S(b1-4)GlcNAc = target: Gal3S4S(b1-4)GlcNAc
# Procedure, shortened: as §1
# Gal3S6S(b1-4)GlcNAc = target: Gal3S6S(b1-4)GlcNAc
# Procedure, shortened: as §1
# Gal3S6S(b1-4)GlcNAc6S = target: Gal3S6S(b1-4)GlcNAc6S
# Procedure, shortened: as §1
# Gal4S(b1-4)GlcNAc = target: Gal4S(b1-4)GlcNAc
# Procedure, shortened: as §1
# Gal4S6S(b1-4)GlcNAc = target: Gal4S6S(b1-4)GlcNAc
# Procedure, shortened: as §1
# Gal6S(b1-4)Glc = target: Gal6S(b1-4)Glc
# Procedure, shortened: as §1
# Gal6S(b1-4)Glc6S = target: Gal6S(b1-4)Glc6S
# Procedure, shortened: as §1
# Gal6S(b1-4)GlcNAc = target: Gal6S(b1-4)GlcNAc
# Procedure, shortened: as §1
# Gal6S(b1-4)GlcNAc6S = target: Gal6S(b1-4)GlcNAc6S
# Procedure, shortened: as §1
# GalNAc(a1-3)Gal = target: GalNAc(a1-3)Gal
# Procedure, shortened: as §1
# GalNAc(a1-3)GalNAc = target: GalNAc(a1-3)GalNAc
# Procedure, shortened: as §1
# [12] = target: GalNAc(a1-3)GalNAc(a1-3)Gal(a1-4)Gal(b1-4)GlcNAc
# Procedure, shortened: as §1
# GalNAc(b1-3)Gal = target: GalNAc(b1-3)Gal
# Procedure, shortened: as §1
# [13] = target: GalNAc(b1-3)Gal(a1-4)Gal(b1-4)GlcNAc
# Procedure, shortened: as §1
# [14] = target: GalNAc(b1-3)Gal(a1-4)Gal(b1-4)GlcNAc(b1-3)Gal(b1-4)Glc
# Procedure, shortened: as §1
# [15] = target: GalNAc(b1-3)Gal(a1-6)Gal(b1-4)Glc
# Procedure, shortened: as §1
# GalNAc(b1-3)GalNAc = target: GalNAc(b1-3)GalNAc
# Procedure, shortened: as §1
# GalNAc(b1-4)GlcNAc = target: GalNAc(b1-4)GlcNAc
# Procedure, shortened: as §1
# [16] = target: GalNAc(b1-4)GlcNAc(b1-2)Man(a1-3)[GalNAc(b1-4)GlcNAc(b1-2)Man(a1-6)]Man(b1-4)GlcNAc(b1-4)GlcNAc
# Procedure, shortened: as §1
# Glc(a1-4)Glc = target: Glc(a1-4)Glc
# Procedure, shortened: as §1
# Glc(a1-6)Glc(a1-6)Glc = target: Glc(a1-6)Glc(a1-6)Glc
# Procedure, shortened: as §1
# Glc(b1-4)Glc = target: Glc(b1-4)Glc
# Procedure, shortened: as §1
# Glc(b1-6)Glc = target: Glc(b1-6)Glc
# Procedure, shortened: as §1
# GlcA(b1-3)Gal = target: GlcA(b1-3)Gal
# Procedure, shortened: as §1
# GlcA(b1-3)GlcNAc = target: GlcA(b1-3)GlcNAc
# Procedure, shortened: as §1
# GlcA(b1-6)Gal = target: GlcA(b1-6)Gal
# Procedure, shortened: as §1
# [17] = target: GlcNAc(a1-3)Gal(b1-4)GlcNAc
# Procedure, shortened: as §1
# [18] = target: GlcNAc(a1-4)Gal(b1-3)GlcNAc
# Procedure, shortened: as §1
binder,measurement,setting,value
B1,glycan array binding signal (z-score),[1],-0.192
same,glycan array binding signal (z-score),[2],-0.187
same,glycan array binding signal (z-score),[3],-0.086
same,glycan array binding signal (z-score),[4],-0.17
same,glycan array binding signal (z-score),[5],0.13
same,glycan array binding signal (z-score),[6],-0.186
same,glycan array binding signal (z-score),[7],-0.192
same,glycan array binding signal (z-score),[8],-0.186
same,glycan array binding signal (z-score),Gal3S(b1-3)GalNAc,-0.144
same,glycan array binding signal (z-score),Gal3S(b1-3)GlcNAc,0.653
same,glycan array binding signal (z-score),[9],-0.2
same,glycan array binding signal (z-score),Gal3S(b1-4)Glc,-0.193
same,glycan array binding signal (z-score),Gal3S(b1-4)Glc6S,0.794
same,glycan array binding signal (z-score),Gal3S(b1-4)GlcNAc,0.015
same,glycan array binding signal (z-score),Gal3S(b1-4)GlcNAc6S,0.851
same,glycan array binding signal (z-score),[10],-0.195
same,glycan array binding signal (z-score),[11],-0.195
same,glycan array binding signal (z-score),Gal3S4S(b1-4)GlcNAc,-0.195
same,glycan array binding signal (z-score),Gal3S6S(b1-4)GlcNAc,-0.195
same,glycan array binding signal (z-score),Gal3S6S(b1-4)GlcNAc6S,-0.168
same,glycan array binding signal (z-score),Gal4S(b1-4)GlcNAc,-0.13
same,glycan array binding signal (z-score),Gal4S6S(b1-4)GlcNAc,-0.202
same,glycan array binding signal (z-score),Gal6S(b1-4)Glc,-0.157
same,glycan array binding signal (z-score),Gal6S(b1-4)Glc6S,-0.196
same,glycan array binding signal (z-score),Gal6S(b1-4)GlcNAc,-0.18
same,glycan array binding signal (z-score),Gal6S(b1-4)GlcNAc6S,-0.192
same,glycan array binding signal (z-score),GalNAc(a1-3)Gal,-0.104
same,glycan array binding signal (z-score),GalNAc(a1-3)GalNAc,-0.193
same,glycan array binding signal (z-score),[12],-0.185
same,glycan array binding signal (z-score),GalNAc(b1-3)Gal,-0.2
same,glycan array binding signal (z-score),[13],-0.203
same,glycan array binding signal (z-score),[14],-0.179
same,glycan array binding signal (z-score),[15],-0.184
same,glycan array binding signal (z-score),GalNAc(b1-3)GalNAc,-0.182
same,glycan array binding signal (z-score),GalNAc(b1-4)GlcNAc,-0.183
same,glycan array binding signal (z-score),[16],-0.194
same,glycan array binding signal (z-score),Glc(a1-4)Glc,-0.2
same,glycan array binding signal (z-score),Glc(a1-6)Glc(a1-6)Glc,-0.198
same,glycan array binding signal (z-score),Glc(b1-4)Glc,-0.101
same,glycan array binding signal (z-score),Glc(b1-6)Glc,-0.178
same,glycan array binding signal (z-score),GlcA(b1-3)Gal,-0.192
same,glycan array binding signal (z-score),GlcA(b1-3)GlcNAc,-0.2
same,glycan array binding signal (z-score),GlcA(b1-6)Gal,-0.183
same,glycan array binding signal (z-score),[17],-0.199
same,glycan array binding signal (z-score),[18],-0.185
